# In all, about 230,000 compounds went through this assay and about 3,600 (1.6%) were called active. Inconclusive means that the source gave no clear call. Such entries were picked first, then a sample of the others. The call rests on the fitted dose curve; in most records, active means well fitted inhibition curve with a large enough effect (not every such curve was filed as active); inconclusive means small, poorly fitted or top-dose-only effect, or another doubt; inactive means no such curve, though single readings can be large or run the other way. Where the call is inconclusive, the potency comes from a doubtful curve fit.
# Biological target: Lysine-specific demethylase 4E (Homo sapiens) (UniProt B2RXH2)
# Assay: qHTS Assay for Inhibitors of Human Jumonji Domain Containing 2E (JMJD2E)
# Details: JMJD2E catalytic domain, FDH-coupled NADH fluorescence (FDH is formaldehyde dehydrogenase); series mostly up to 57.1 µM
# Further: nearly all actives have a fitted effect of over 50% in size.
# Potency means the concentration at half of the fitted maximal effect; tags describe the fitted curve by direction and shape.
# 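Wherever activity change, negative = inhibition is given: 0% = wells with enzyme and -100% = buffer wells without enzyme.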
# UniProt B2RXH2, sequence (B2RXH2 whole entry, looked up, the tested form may be a part): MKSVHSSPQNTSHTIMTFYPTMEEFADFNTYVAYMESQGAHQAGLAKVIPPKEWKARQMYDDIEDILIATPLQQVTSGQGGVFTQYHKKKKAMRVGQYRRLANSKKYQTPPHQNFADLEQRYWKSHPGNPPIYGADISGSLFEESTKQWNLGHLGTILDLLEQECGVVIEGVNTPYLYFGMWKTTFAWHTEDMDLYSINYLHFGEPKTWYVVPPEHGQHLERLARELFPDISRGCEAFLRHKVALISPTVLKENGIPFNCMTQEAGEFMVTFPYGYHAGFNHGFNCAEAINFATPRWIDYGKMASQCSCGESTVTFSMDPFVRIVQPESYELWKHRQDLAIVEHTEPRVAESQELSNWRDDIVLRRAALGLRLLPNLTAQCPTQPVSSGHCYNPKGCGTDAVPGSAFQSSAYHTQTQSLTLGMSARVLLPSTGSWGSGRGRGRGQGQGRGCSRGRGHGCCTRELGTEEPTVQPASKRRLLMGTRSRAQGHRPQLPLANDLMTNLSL
Compound,Potency,"activity change, negative = inhibition"
CC(=O)N(Cc1cccnc1)Cc1cc2ccc(C)cc2[nH]c1=O,"inconclusive: 35.5 µM [inhibitor, single point]",
CC(=O)Nc1ccc(C2=NNC(=Nc3ccc(S(=O)(=O)N4CCOCC4)cc3)SC2)cc1,"inconclusive: 25.1 µM [inhibitor, single point]",
COc1ccc(/C=C/C(=O)c2ccc(C)s2)cc1,"inconclusive: 35.5 µM [inhibitor, partial curve]",
Cc1ccc(-c2nc(C)c(C(=O)O)s2)cc1,"inconclusive: 39.8 µM [inhibitor, single point]",
O=C(O)CCc1ccc(-c2cccs2)n1-c1ccc(C(=O)O)cc1,"inconclusive: 39.8 µM [inhibitor, single point]",
CCOC(=O)c1c(NC(=O)COC(=O)c2c(C)noc2C)sc2c1CCC2,"inconclusive: 31.6 µM [inhibitor, single point]",
Cc1cccc(NC(=S)NCc2ccc(F)cc2)c1,inactive,
O=C(CSCc1ccccc1)N/N=C/c1ccccc1OCc1ccccc1,"inconclusive: 39.8 µM [inhibitor, single point]",
O=[N+]([O-])c1ccc2nc(-c3ccccn3)[nH]c2c1,"inconclusive: 3.16 µM [inhibitor, single point]",
CCCc1cc(C(=O)NNC(=S)NCC2CCCO2)cs1 (stereo not given),inactive,
C=CC1=C2C=C(C3CC3)N(Cc3ccccc3)C=C2C(=O)C(C)(OC(=O)c2ccco2)C1=O (stereo not given),,inactive: -7.32% [at 11.4 µM]
CCOc1ccc(N2C(=O)C3ON(c4ccccc4)C(c4cccs4)C3C2=O)cc1 (stereo not given),"inconclusive: 28.2 µM [inhibitor, single point]",
CN(C)c1ccc(NC(=O)c2ccc(Cn3cc([N+](=O)[O-])cn3)cc2)cc1,inactive,
O=C(NC1CC1)c1ccc(-c2nc3ccccc3s2)s1,"inconclusive: 28.2 µM [inhibitor, partial curve]",
Cc1nn(-c2ccccc2)c(Cl)c1C(=O)N1CCN(c2ncnc3c2cnn3-c2ccccc2)CC1,"inconclusive: 28.2 µM [inhibitor, single point]",
CC(C)Oc1ccc(C(=O)N/N=C/c2ccc(-c3ccc(S(=O)(=O)Nc4ncccn4)cc3)o2)cc1,"inconclusive: 31.6 µM [inhibitor, partial curve]",
C=CCOC(=O)C1=C(C)NC(SC)=C(C#N)C1c1cccs1 (stereo not given),inactive,
Cc1ccc(C)c(N=Cc2cc3c(cc2[N+](=O)[O-])OCO3)c1,inactive,
CN(C)c1ccc(NC(=O)COC(=O)c2cc(Cl)ccc2[N+](=O)[O-])cc1,inactive,
CCOC(=O)CC(=O)c1cc(OC)c(OC)c(OC)c1,"inconclusive: 39.8 µM [inhibitor, single point]",
O=C(NC1=NCCS1)C1CCCCC1,inactive,
COc1cc(SC)ccc1C(=O)Nc1nc(C)cs1,"inconclusive: 35.5 µM [inhibitor, single point]",
CC(Oc1cccc(Cl)c1)c1ccnc2nc(/N=C/N(C)C)nn12 (stereo not given),"inconclusive: 28.2 µM [inhibitor, partial curve]",

Compound,Potency,"activity change, negative = inhibition"
O=c1cc2ncc(-c3[nH]ncc3[N+](=O)[O-])cn2[nH]1,"inconclusive: 39.8 µM [inhibitor, single point]",
CCN(CC)c1ccc(/C=N/O)cc1,"inconclusive: 31.6 µM [inhibitor, single point]",
O=C(COc1ccc2c3c(c(=O)oc2c1)CCC3)c1ccc2c(c1)OCO2,"inconclusive: 20 µM [inhibitor, partial curve]",
C1CCC(Nc2nnnn2C2CCCCC2)CC1,inactive,
CN1CCN(C(=O)c2c(NC(=O)c3ccco3)sc3c2CCC(C(C)(C)C)C3)CC1 (stereo not given),"inconclusive: 39.8 µM [inhibitor, single point]",
CCN(CC)S(=O)(=O)c1ccc(/C(O)=C(\C#N)c2nc3ccccc3n2C)cc1,inactive,
CCCCCC/C(=N/O)c1ccccn1,"inconclusive: 35.5 µM [inhibitor, single point]",
CCOC(=O)c1sc2nc(CSCC(=O)OCc3ccc(C(=O)OC)o3)[nH]c(=O)c2c1C,"inconclusive: 28.2 µM [inhibitor, single point]",
COc1ccc2c(c1)CCc1cn3ncc(C#N)c3nc1-2,"inconclusive: 10 µM [inhibitor, partial curve]",
C=CCOc1ccccc1C1C2=C(CC(C)(C)CC2=O)Nc2c1c(=O)n(C)c(=O)n2C (stereo not given),"inconclusive: 25.1 µM [inhibitor, partial curve]",
COC(=O)C1=C(C)N(C2CCCCC2)C(=O)/C1=C\c1cccs1,inactive,
O=c1c(-c2nc3ccccc3s2)cccn1Cc1ccccc1,"inconclusive: 28.2 µM [inhibitor, partial curve]",
COC(=O)c1cc(C#N)c(N2CCN(C)CC2)nc1C,"inconclusive: 31.6 µM [inhibitor, partial curve]",
CC1CC(C)CN(C(=O)C2CCC(CNc3c(N4CCCCC4)c(=O)c3=O)CC2)C1 (stereo not given),inactive,
O=C(c1cc2nc(-c3ccco3)cc(C(F)(F)F)n2n1)N1CCc2ccccc2C1,"inconclusive: 28.2 µM [inhibitor, partial curve]",
O=C1c2ccccc2NC(c2ccc(O)cc2)N1Cc1ccco1 (stereo not given),"inconclusive: 28.2 µM [inhibitor, partial curve]",
O=C(CN1CCCCC1)Nc1ccc(NC(=O)c2ccc(Cl)cc2)cc1Cl,"inconclusive: 8.91 µM [inhibitor, single point]",
CC(=O)Nc1sc2c(c1C#N)CCCCC2,inactive,
CCCCCNc1nc(-c2ccccc2)cs1,inactive,
Cc1ccc(-n2c3c(c(=O)[nH]c2=O)C(NS(=O)(=O)c2ccc(Cl)cc2)(C(F)(F)F)C(=O)N3)cc1 (stereo not given),"inconclusive: 39.8 µM [inhibitor, single point]",
Cc1ccc(C(=O)Oc2ccc(C(=O)COC(=O)C3CC(=O)N(Cc4ccco4)C3)cc2)cc1 (stereo not given),inactive,
Cc1nn2c(N3CCN(C)CC3)cc(C(C)(C)C)nc2c1-c1ccccc1,"inconclusive: 28.2 µM [inhibitor, single point]",

# — PubChem BioAssay AID2147 (National Center for Advancing Translational Sciences (NCATS), 2009)
